In patent US10864269B2, “Therapeutic combinations comprising anti-CD73 antibodies and uses thereof” (MedImmune Limited, priority 2014, dated 2020):

Test system: recombinant soluble CD73 ECD as well as native CD73 displayed on cells
Assay: Inhibition of CD73 activity by lead antibody
Assay type: biochemical

B1: CD730010: IgG1 with VL SEQ ID NO:3 and VH SEQ ID NO: 4; lead antibody (antibody, V domains shown)
VH: [letters of about 100 residues left out]LGYSTIDYWGRGTLVTVSS
VL: LPVLTQPPSVSGTPGQRVTISCSGSLSNIGRNPVNWYKQVPGTAPKLLIYLNNQRPSGVPDRFSGSKSGTSASLAISGLQSEDEADYYCATWDDSLNGWLFGGGTKLTVL
  activity of recombinant soluble CD73 ECD and native CD73 displayed on cells: inhibit
